Reference: PubChem BioAssay AID624417 (National Center for Advancing Translational Sciences (NCATS), 2012)
In all, about 410,000 compounds went through this assay and about 6,400 (1.6%) were called active. Inconclusive means that the source gave no clear call. Such entries were picked first, then a sample of the others. Calls follow the shape of the dose curve; as a rule, active = well fitted inhibition curve with a large enough effect; inconclusive = small, poorly fitted or top-dose-only effect; inactive = no such curve, though single readings can be large or run the other way. Potencies of inconclusive entries are left out as doubtful fits.

The compounds below were run against Glucagon-like peptide 1 receptor (Homo sapiens) (UniProt P43220) (assay: qHTS of GLP-1 Receptor Inverse Agonists (Inhibition Mode)). Conditions: HEK293 GLP-1R CRE-luciferase, luminescence, 24 h, GLP-1R form is constitutively active; activity change, negative = inhibition: at 38.3 µM (top of the series) unless noted.
Sequence of UniProt P43220 (P43220 whole entry, looked up): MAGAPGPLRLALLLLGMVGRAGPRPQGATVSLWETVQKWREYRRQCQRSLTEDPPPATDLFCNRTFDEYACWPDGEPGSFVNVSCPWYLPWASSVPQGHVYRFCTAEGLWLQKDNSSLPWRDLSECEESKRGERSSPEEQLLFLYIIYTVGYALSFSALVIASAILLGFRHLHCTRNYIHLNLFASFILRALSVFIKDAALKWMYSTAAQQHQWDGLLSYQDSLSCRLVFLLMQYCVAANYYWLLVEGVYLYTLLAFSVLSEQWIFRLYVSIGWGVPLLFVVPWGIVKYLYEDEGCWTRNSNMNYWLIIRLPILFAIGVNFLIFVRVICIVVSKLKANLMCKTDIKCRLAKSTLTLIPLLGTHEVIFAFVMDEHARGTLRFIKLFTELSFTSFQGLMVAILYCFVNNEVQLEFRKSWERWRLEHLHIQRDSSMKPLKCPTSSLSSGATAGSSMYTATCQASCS
How it was run: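 Luminescence readout: a drop in cAMP-driven luciferase signal flags inverse agonism at a constitutively active GLP-1R stably expressed in HEK293. Compound exposure lasted 24 hr at 37 deg C, 5% CO2.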
% is scaled to controls: 0 for no effect and ±100 for the full control effect; potency is read from the fitted curve at half-maximal effect; tags tell the direction and shape of the fitted curve.
Also: nearly all actives have a fitted effect of over 55% in size.

| SMILES | Potency | activity change, negative = inhibition |
| --- | --- | --- |
| CCCCCN(C(=O)CCC(=O)OCC(=O)c1ccc(C(C)(C)C)cc1)c1c(N)n(CCCC)c(=O)[nH]c1=O | inconclusive [inhibitor, single point] | – |
| CCOc1ccc(S(=O)(=O)NC(C)(C)C)cc1-c1nc2c(C(C)(C)C)nn(C)c2c(=O)[nH]1 | inconclusive [inhibitor, partial curve, poor fit] | – |
| CCc1cc2c(N3CCN(C(=O)c4ccco4)CC3)ncnc2s1 | – | inactive: -3.58% [at 0.307 µM] |
| O=S(=O)(c1ccc(Br)cc1)c1nnn2c1nc(NCc1cccs1)c1sccc12 | – | inactive: 6.68% |
| COc1ccc(Cl)cc1NC(=O)CCN1CCN(Cc2ccccc2)CC1 | inconclusive [inhibitor, partial curve, poor fit] | – |
| Cc1ccccc1OCc1nc(-c2ccc(Br)o2)no1 | inconclusive [inhibitor, single point] | – |
| CCN1C(=S)SC(=O)C1=C1C=C(C)N(Cc2ccco2)C(C)=C1 | inconclusive [inhibitor, single point] | – |
| O=C(Nc1ccc2c(c1)OCO2)C(c1ccc(Cl)cc1)N1CCN(C(=O)c2ccco2)CC1 (centres undefined) | inconclusive [inhibitor, partial curve, poor fit] | – |
| COc1ccccc1N1CCN(S(=O)(=O)CCNC(=O)CC2CCCCC2)CC1 | inconclusive [inhibitor, partial curve, poor fit] | – |
| O=C(O)c1ccc(CSc2nc3ccccc3[nH]2)cc1 | – | inactive: 17.7% |
| CCCCn1c(=S)[nH]c2ccccc2c1=O | inconclusive [inhibitor, full curve, poor fit] | – |
| O=C(NC1(C(F)(F)F)NC(=O)N(C2CCCCC2)C1=O)c1ccco1 (centres undefined) | – | inactive: -24.1% |
| O=C(c1cccc(Cl)c1)C1CCCN(S(=O)(=O)c2ccccc2)C1 (centres undefined) | inconclusive [inhibitor, partial curve, poor fit] | – |
| O=C(C(=O)N(Cc1ccccc1)Cc1ccccc1)c1c(-c2ccccc2)[nH]c2ccccc12 | inconclusive [inhibitor, partial curve, poor fit] | – |
| CCOC(=O)N1CCN(S(=O)(=O)c2ccc(C(=O)N(CCCN(C)C)c3nc4ccc(OC)cc4s3)cc2)CC1 | inconclusive [inhibitor, single point] | – |
| COc1ccc(C2CC(=O)c3cnc(N4CCN(Cc5ccccc5)CC4)nc3C2)cc1 (centres undefined) | inconclusive [inhibitor, partial curve, poor fit] | – |
| CN1C(=O)/C(=C2/C=Cc3ccccc3N2CCCS(=O)(=O)O)SC1=S | – | inactive: -2.29% |
| CCn1c(NCc2cccc(Cl)c2)nc2ccccc21 | inconclusive [inhibitor, single point] | – |
| COc1cccc(COC(=O)c2ccc(S(=O)(=O)N3CCC(C)CC3)cc2)c1OC | inconclusive [inhibitor, single point] | – |
| CC(C)N(Cc1ccccc1)C(=O)C1CCCN(c2ncnc3c2nc2n3CCCCC2)C1 (centres undefined) | inconclusive [inhibitor, partial curve, poor fit] | – |

| SMILES | Potency | activity change, negative = inhibition |
| --- | --- | --- |
| Cc1[nH]c2ccccc2c1CCN(Cc1cccnc1)C(=S)Nc1ccc(F)cc1 | inconclusive [inhibitor, single point] | – |
| O=C(CSc1nc(-c2ccccc2)cn1-c1ccccc1)Nc1ccccc1 | inconclusive [inhibitor, single point] | – |
| COc1cc(C(=O)NNC(=O)c2cc(-c3ccccc3)n[nH]2)cc(OC)c1C | inconclusive [inhibitor, single point] | – |
| COc1cc(-c2nc3ccc(C)cn3c2Nc2ccc(Cl)cc2)ccc1O | active: 3.55 µM | – |
| CCCCCCSc1ccc([C@@H]2[C@@H]3C(=O)N(CC)C(=O)[C@@H]3[C@]3(C(=O)OC)CCCCN23)cc1OC | active: 11.2 µM | – |
| CCCCCCCCN1C(=O)[C@H](CC(=O)N2CCN(C(=O)C3CC3)CC2)C[C@@]2(C(=O)OC)CC(C)(C)CC=C12 | inconclusive [inhibitor, full curve, poor fit] | – |
| CCOc1ccc(-n2c(=O)cc(N3CCN(c4ccc(F)cc4)CC3)[nH]c2=O)cc1 | – | inactive: 20% |
| COC(=O)C1=NN(c2ccc(OC)cc2)C2C(=O)N(c3ccccc3OC)C(=O)C12 (centres undefined) | – | inactive: 9.57% |
| Cc1ccc(NC(=S)N2CCCC(c3nc4ccccc4[nH]3)C2)cc1 (centres undefined) | inconclusive [inhibitor, single point] | – |
| Cc1ccc(NC(=O)c2ccc(OC(=O)COc3cccc(Cl)c3)cc2)cc1 | – | inactive: 11.1% |
| COc1cc(C2NC(=O)NC(C)=C2C(=O)OCC2CCCO2)cc(OC)c1OC (centres undefined) | – | inactive: 3.72% |
| CCOC(=O)C1=C(C)N(C[C@@H]2CC[C@@H](Cc3ccc4cc(OC)ccc4c3)O2)C(=O)NC1c1ccc(OC)cc1 (some centres undefined) | inconclusive [inhibitor, partial curve, poor fit] | – |
| CCOC(=O)N1CCN(S(=O)(=O)c2ccc(F)c(C(=O)Nc3ccc(C)c(Cl)c3)c2)CC1 | inconclusive [inhibitor, single point] | – |
| COc1ccc(OC)c(NC(=O)CC2SC(=Nc3ccc(F)cc3)N(CCC3=CCCCC3)C2=O)c1 (centres undefined) | active: 4.47 µM | – |
| CCOC(=O)C(Cc1c[nH]c2ccccc12)NC(=O)COc1ccc(Cl)cc1 (centres undefined) | inconclusive [inhibitor, single point] | – |
| COc1ccccc1NC(=O)CCCN1C(=O)C(c2ccccc2)Oc2cccnc21 (centres undefined) | inconclusive [inhibitor, single point] | – |
| CC1(C(=O)N2CCCCC2)CCN1C(=O)Cc1ccc(-c2ccccc2)cc1 (centres undefined) | inconclusive [inhibitor, partial curve, poor fit] | – |
| COc1ccccc1CCNC(=O)Cn1ccc2cc(S(=O)(=O)N3CCCCCC3)ccc21 | inconclusive [inhibitor, single point] | – |
| COc1cccc(-c2nn(C)c3sc(C(=O)N4CCN(c5cccc(C)c5)C(C)C4)cc23)c1 (centres undefined) | inconclusive [inhibitor, single point] | – |
